Measurements: PubChem BioAssay AID360 (National Center for Advancing Translational Sciences (NCATS), 2006)
The whole screen tested about 48,000 compounds, of which about 550 (1.1%) were called active. Another 4% or so got no clear call; they are omitted. Rule as the data show it: active = potency below about 15 µM; inconclusive = mostly about 16 µM to 33 µM; inactive = weaker than that. The list shows a part of the results.

molecular target: Lysosomal acid glucosylceramidase (Homo sapiens) (UniProt P04062); test: Glucocerebrosidase; conditions: purified enzyme, resorufin glucoside fluorescence (screen aimed at inhibitors), 20 min;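 also: the screen sought inhibitors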
Sequence of UniProt P04062 (P04062 whole entry, looked up): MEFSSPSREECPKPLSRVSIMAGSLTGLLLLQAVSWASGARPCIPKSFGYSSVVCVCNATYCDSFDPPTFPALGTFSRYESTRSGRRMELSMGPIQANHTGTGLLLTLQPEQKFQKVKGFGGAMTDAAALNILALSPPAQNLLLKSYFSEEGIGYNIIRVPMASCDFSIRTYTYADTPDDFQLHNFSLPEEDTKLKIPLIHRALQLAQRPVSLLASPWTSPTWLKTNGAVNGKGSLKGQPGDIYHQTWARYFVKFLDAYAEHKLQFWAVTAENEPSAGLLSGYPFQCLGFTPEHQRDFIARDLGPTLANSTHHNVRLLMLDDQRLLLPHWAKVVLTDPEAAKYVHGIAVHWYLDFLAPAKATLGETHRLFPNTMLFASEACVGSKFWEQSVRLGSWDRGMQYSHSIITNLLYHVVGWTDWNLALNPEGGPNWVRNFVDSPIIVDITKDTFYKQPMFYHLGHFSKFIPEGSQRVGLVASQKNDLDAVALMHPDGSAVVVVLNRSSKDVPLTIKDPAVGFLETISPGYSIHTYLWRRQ
Procedure, shortened: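 Compounds titrated against 0.2 nM normal enzyme, 30 uM resorufin beta-D-glucopyranoside substrate, citrate/phosphate buffer with taurocholate and tween-20, pH 5.9. Reaction ran 20 min at room temperature; fluorescence (Ex 548/Em 600) gave AC50.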
Potency is read from the fitted curve at half-maximal effect.

Potency, inactive:
CNc1nc(C)c(C(=O)OCc2ccccc2)s1 > 76.9 µM
COC(=O)c1ccc(CNC(=O)CNc2cc(C(F)(F)F)ccc2N2CCOCC2)cc1 > 76.9 µM
CCN(CC(=O)O)S(=O)(=O)c1cc(Cl)ccc1Cl > 76.9 µM
O=C(CN1C(=O)C2CC=C(Cl)CC2C1=O)Nc1ccc(C(=O)O)cc1 (stereo not drawn) > 76.9 µM
CCCc1nnc(NC(=O)CCC(=O)Nc2ccc(F)cc2)s1 > 76.9 µM
CCOC(=O)c1ccccc1NC(=O)Nc1ccc(OC)c(OC)c1 > 76.9 µM
COC(=O)c1[nH]c2ccc(Cl)cc2c1NC(=O)CCN1CCOCC1 > 76.9 µM
CC(=O)NC1C(=O)Nc2c1cccc2C(F)(F)F (stereo not drawn) > 76.9 µM
CCC(C(=O)NC1CCCCC1)N(CC1CCCO1)C(=O)CNS(=O)(=O)c1ccc(OC)cc1 (stereo not drawn) > 76.9 µM
CCOC(=O)Cn1cnc2c(cnn2-c2ccc(Cl)cc2)c1=O > 76.9 µM
CCC1(C)Cc2ccccc2-c2nc3n(c(=O)c21)CCCCC3 (stereo not drawn) > 76.9 µM
COC(=O)C1=C(C(C)=O)C(c2ccc(C)cc2)n2nnnc2N1 (stereo not drawn) > 76.9 µM
O=C(Cc1ccc(F)cc1)Nc1c2c(nn1-c1cccc(Cl)c1)CS(=O)C2 (stereo not drawn) > 76.9 µM
CCCc1cc(=O)[nH]c(SCC(=O)Nc2nonc2N)n1 > 76.9 µM
Cc1nn(C)c(C)c1NC(=O)CSc1nc(Cc2ccccc2)nc2c1cnn2-c1ccccc1 > 76.9 µM
CC(C)n1c(SCC(=O)c2ccc3c(c2)OCCO3)nc2c1c(=O)n(C)c(=O)n2C > 76.9 µM
CCC1(C)Cc2c(sc3nc4n(c(=O)c23)CCCS4)CO1 (stereo not drawn) > 76.9 µM
C=CCn1c(-c2ccoc2)n[nH]c1=S > 76.9 µM
O=C(C1CCC1)N1CCc2cc(S(=O)(=O)NC3CCCC3)ccc21 > 76.9 µM
COc1ccc(C(CC(=O)O)NC(=O)COc2ccccc2OC)cc1OC (stereo not drawn) > 76.9 µM
O=C(NC1CCS(=O)(=O)C1)c1ccc(S(=O)(=O)NCC2CCCO2)cc1 (stereo not drawn) > 76.9 µM
CN1CCN(/C=N/c2c(C#N)cnn2-c2ccccc2)CC1 > 76.9 µM
COC(=O)C1CCN(C(=O)C(C)Oc2ccc(Cl)cc2Cl)CC1 (stereo not drawn) > 76.9 µM
CCOc1ccc(-c2[nH]nc3c2C(c2ccc4c(c2)OCO4)C(C#N)=C(N)O3)cc1OC (stereo not drawn) > 76.9 µM
CCN(CC)C(=O)CSc1nnc(-c2cccnc2)n1CCc1ccccc1 > 76.9 µM
CSc1nc2nc3c(c(=O)n2[nH]1)CN(Cc1ccccc1)CC3 > 76.9 µM
Cc1ccc(-c2nnc(SCC(=O)Nc3ccc(S(=O)(=O)N4CCCCCC4)cc3)o2)cc1 > 76.9 µM
Cn1cccc1C(=O)Nc1nc(-c2ccccn2)cs1
Cn1c(=N)c(S(=O)(=O)c2ccccc2)cc2c(=O)n3ccccc3nc21 > 76.9 µM
CC1CC(c2ccccc2)n2nc(NC(=O)c3ccco3)nc2N1 (stereo not drawn) > 76.9 µM
Nc1ccccc1NC(=O)c1ccccc1 > 76.9 µM
CCOC(=O)N1CCN(S(=O)(=O)c2ccc(OCC)c(C)c2)CC1 > 76.9 µM
O=C(Cn1c(C(=O)N2CCc3ccccc3C2)cc2sccc21)c1ccccc1 > 76.9 µM
O=C1Nc2ccccc2C12OCCO2 > 76.9 µM
COc1ccccc1N1CCN(C(=O)CSc2ccc3c(C)cc(C)nc3n2)CC1 > 76.9 µM
Cc1cccc(NC(=O)CSc2nnc(CSc3nc(C)cc(C)n3)o2)c1 > 76.9 µM
Cc1ccc(-c2cc(C(F)F)nc(NCc3cccnc3)n2)cc1 > 76.9 µM
CCOC(=O)N1CCC(NC(=O)CS(=O)Cc2nc(-c3ccc(OC)c(OC)c3)oc2C)CC1 (stereo not drawn) > 76.9 µM
Cc1ccc(-c2nnn(CC(=O)N(CC(=O)NCc3ccccc3)c3cccc(C)c3C)n2)o1 > 76.9 µM
Cc1cc2c(cc1C)/C(=C\C(N)=O)NC(C)(C)C2 > 76.9 µM
CCCOCC(O)COc1ccccc1C(=O)N1CCOCC1 (stereo not drawn) > 76.9 µM
COC(=O)c1[nH]c2cccc(C)c2c1NC(=O)CN1CCN(C(=O)c2ccco2)CC1 > 76.9 µM
O=S(=O)(c1ccccc1)c1ccccc1/C=N\O > 76.9 µM
COc1ccc(C(=O)N2CCN(C(=O)c3cc(OC)c(OC)c(OC)c3)CC2)cc1 > 76.9 µM
CCN(CC)C(=O)CN1CCN(c2ccccc2F)CC1 > 76.9 µM
CCN1CCN(CCCNC(=O)C(NC(=O)C2CCC(C)CC2)C(C)C)CC1 (stereo not drawn) > 76.9 µM
COc1ccc(Br)cc1S(=O)(=O)N1CC(C)OC(C)C1 (stereo not drawn) > 76.9 µM
CCCC(=O)OCC(=O)Nc1cc(C(C)(C)C)nn1-c1ccccc1 > 76.9 µM
NCCCSC1=NCCCN1 > 76.9 µM
COc1cc(-c2nnc(SCC(=O)c3ccc(C)cc3)o2)cc(OC)c1OC
CCCn1nnc(NC(=O)c2ccc(OCC)c(Cl)c2)n1 > 76.9 µM
CN(C)S(=O)(=O)c1ccc(C(=O)OCc2ccc(C#N)cc2)cc1 > 76.9 µM
Cc1ccc(NC(=O)C2CCCNC2=O)nc1 (stereo not drawn) > 76.9 µM
CC(C#N)On1c(SC(C)C#N)nc2ccccc2c1=O (stereo not drawn) > 76.9 µM
CS(=O)(=O)N1CCN(C(=O)NC23CC4CC(CC(C4)C2)C3)CC1 > 76.9 µM
Cc1cc(C)c(S(=O)(=O)Nc2ccc[nH]c2=O)c(C)c1 > 76.9 µM
CCOc1ccccc1C(=O)N1CCN(c2cccc(Cl)c2)CC1 > 76.9 µM
CCOC(=O)NCC(C#CCN(CC)CC)N(CC)CC (stereo not drawn) > 76.9 µM
